Values joined by “and” are separate entries in the source; they are usually repeats but may differ in a detail not shown here. Equal values may be shown once. In all, about 150,000 compounds went through this assay and about 540 (0.36%) showed an effect of 50% or more. This is one part of the list.
Tested on: Plasmodium falciparum
Assay: Primary screen in NF54 nanoGlo assay, in single point, at 2uM, 72h; a lower Z score goes with more inhibition
Type: functional, Erythrocyte
Details: timepoint 72 hour

COCCCCN1CCN(C(=O)Cc2c[nH]c3ccccc23)CC1
% Inhibition: -8%
Z score: 0.83

CC1CCN2c3cc(Cl)ccc3CC3(C(=O)N(C)C(=O)N(C)C3=O)C2C1 (stereo not drawn)
% Inhibition: -11%
Z score: 2.07

O=c1[nH]c2cc(-c3cc(F)cc4cccnc34)ccc2o1
% Inhibition: -7%
Z score: 1.26

Cn1nnc2c(N3CC4CC(C3)c3cccc(=O)n3C4)ncnc21 (stereo not drawn)
% Inhibition: -11%
Z score: 1.71

Cc1ccnc(N2CCN(C)C3(CCCCC3)C2)n1
% Inhibition: 0%
Z score: -0.03

COCCc1noc(CN[C@@H](C)Cn2cncn2)n1
% Inhibition: -10%
Z score: 1.77

CCc1cccc(NC(=O)CC2CCN(S(=O)(=O)c3ccc4c(c3)oc(=O)n4C(C)C)CC2)c1
% Inhibition: -5%
Z score: 0.47

C[C@@H](Cc1ccc2ccccc2c1)NC1CCN(S(C)(=O)=O)CC1
% Inhibition: 0%
Z score: -0.03

Cn1cc(C(F)(F)F)nc1[C@H]1CCCNC1
% Inhibition: -3%
Z score: 0.43

OC1CC2CCC(C1)N2Cc1ccoc1 (stereo not drawn)
% Inhibition: -8%
Z score: 1.32

CC(C)n1c(=O)[nH]c2c(C(=O)N3CCC4(CC3)OCCO4)snc2c1=O
% Inhibition: -14%
Z score: 2.31

Cc1nc(-c2ccco2)cc([C@H]2CN3CC[C@H]2C[C@@H]3CNC(=O)NC2CCCCC2)n1
% Inhibition: 3%
Z score: -0.56

Cn1ccnc1CN1C[C@@H]2CC[C@H]1CN(C(=O)c1cccnc1)C2
% Inhibition: 5%
Z score: -1.06

CC(C)(C)OC(=O)NC1CCC2CN(Cc3ccncc3)CC21 (stereo not drawn)
% Inhibition: -3%
Z score: 0.34

O=C(c1ccc[nH]1)C(Cl)(Cl)Cl
% Inhibition: 18%
Z score: -2.1

Cc1ncsc1C(=O)N1C[C@@H](c2ccc3c(c2)OCO3)[C@@H]2[C@H]1C1CCN2CC1
% Inhibition: -2%
Z score: 0.25

C1CCC(C2NCCN3CCCC23)CC1 (stereo not drawn)
% Inhibition: 2%
Z score: -0.29

C=CCc1cc(-c2c(C#N)c(N)nc3c2[C@@H]2CC[C@H](C3)N2C)ccc1O
% Inhibition: 9%
Z score: -1.27

COc1ccc2c(c1)[C@@]1(CCN(C(=O)c3ccccc3OC)C1)C(=O)N2C
% Inhibition: -8%
Z score: 1.12

c1cncc([C@@H]2CCCN2c2nnc(C3CC3)s2)c1
% Inhibition: 2%
Z score: -0.36

COc1ccc([C@H]2C[C@@H](O)[C@@H](O)[C@@H]2NCC(C)C)cc1
% Inhibition: -12%
Z score: 1.52

COC1CCN(S(=O)(=O)N2CCC[C@H]2c2cccnc2)CC1
% Inhibition: -13%
Z score: 2.35

COc1ccccc1CN1CC[C@]2(CCOC2)C1
% Inhibition: -15%
Z score: 1.85

COC(=O)C1CC2C(CCC(C)N2CC(N)=O)O1 (stereo not drawn)
% Inhibition: -3%
Z score: 0.51

Cc1nn(-c2ccccc2)c(C)c1S(=O)(=O)N1CCC(C(=O)N2CCC3(CC2)OCCO3)CC1
% Inhibition: -7%
Z score: 0.95

COC[C@@H](O)CNC(C)(C)Cc1ccc(Br)cc1
% Inhibition: -14%
Z score: 2.23

NC1(C(=O)N2C[C@@H](c3cccc(F)c3F)[C@@H]3[C@H]2C2CCN3CC2)CCC1
% Inhibition: -4%
Z score: 0.76

C#C[C@H]1C[N@@]2CC[C@H]1C[C@@H]2CNS(=O)(=O)c1ccc(OC)cc1
% Inhibition: -6%
Z score: 0.93

Cc1ccc(-c2nccn2CCc2c[nH]cn2)c(C)c1F
% Inhibition: -1%
Z score: 0.18

O=C(c1c[nH]c2ccccc12)[C@H]1CCCNC1
% Inhibition: -6%
Z score: 0.76

CN1C(=O)N(C)C(=O)C(Cc2nnc(-c3ccccc3Br)o2)(Cc2nnc(-c3ccccc3Br)o2)C1=O
% Inhibition: -4%
Z score: 0.54

O=c1c2ccccc2nnn1C[C@H]1CC[C@H](C(=O)N2CCC3(CC2)OCCO3)CC1
% Inhibition: -17%
Z score: 2.4

O[C@@H](CNC1CCCCCC1)C(F)(F)F
% Inhibition: -8%
Z score: 0.99

CC(=O)NCC(=O)NCC(=O)N[C@@H](C)Cc1ccc(C)cc1C
% Inhibition: -13%
Z score: 1.73

COc1nc(C)cc(C)c1Cn1ccnc1-c1ccco1
% Inhibition: -8%
Z score: 0.92

CN1C[C@H]2CN(Cc3cncs3)C[C@@]2(C(=O)O)C1
% Inhibition: -23%
Z score: 2.26

CCCCNC(=O)NCc1cncnc1N
% Inhibition: -6%
Z score: 1.13

Cc1cc(C[C@H](C)NCc2cn(C(C)C)nc2C)n[nH]1
% Inhibition: 8%
Z score: -0.98

Cc1nnc(CN2CC[C@@H]3CCCC[C@H]3C2)s1
% Inhibition: -19%
Z score: 2.15

CCc1nnc2ccc(N3CC[C@@]4(CCCN(C)C4)C3)nn12
% Inhibition: -13%
Z score: 1.28

O=C(c1cc(-c2ccncc2)n(-c2ccccc2)n1)N1CCC2(CC1)OCCO2
% Inhibition: -1%
Z score: 0.2

c1cc(-c2ccncc2)cc(N2CCNCC2)c1
% Inhibition: -3%
Z score: 0.5

Cc1ccc(OCCN(C)[C@@H](C)Cc2cnccn2)c(C)c1
% Inhibition: -3%
Z score: 0.56

CCNC(=O)N1C[C@H](c2cccc(F)c2F)[C@@H]2[C@H]1C1CCN2CC1
% Inhibition: 6%
Z score: -0.72

O=C(C[C@@H]1NC(=O)N(Cc2cccc(Cl)c2)C1=O)N1C[C@@H]2C[C@@H](C1)c1cccc(=O)n1C2
% Inhibition: -16%
Z score: 2.03

CC12CCC(C(=O)Nc3ccc(Cl)cc3C(=O)c3ccccc3)(CC1=O)C2(C)C (stereo not drawn)
% Inhibition: -3%
Z score: 0.51

Cc1ccccc1C(=O)N1CCC2(CC1)N(c1ccccc1)C(=O)CS2(=O)=O
% Inhibition: -5%
Z score: 0.71

O=C(c1onc2ccccc12)N1CCC2(CC1)NCCNC2=O
% Inhibition: -16%
Z score: 2.06

CC1(O)C[C@]2(C)N(O)C3CCCC[C@@H]3N2O1 (stereo partly drawn)
% Inhibition: 3%
Z score: -0.35

Cc1nc(NCCc2c[nH]cn2)cc([C@H]2C[C@@H](O)C2)n1
% Inhibition: 3%
Z score: -0.48

COc1ccccc1N1CCN(C(=O)c2cnc(-c3ccccc3)nc2N(C)C2CCN(C)CC2)CC1
% Inhibition: -12%
Z score: 1.31

CN(CCc1ccccn1)CC1CCCCC1
% Inhibition: 11%
Z score: -1.63

CCn1nc(C)c(C(=O)N2C[C@H](c3ccccc3)[C@@H]3[C@H]2C2CCN3CC2)c1C
% Inhibition: 4%
Z score: -0.44

c1ccc(CC2CC3CCC(C2)N3)cc1 (stereo not drawn)
% Inhibition: -10%
Z score: 0.85

COCCn1c(C(=O)N[C@H](c2ccccc2)c2nc3ccccc3[nH]2)cc2ccccc21
% Inhibition (2 µM): -18% and -10%
Z score (2 µM): 2.27 and 1.6

Cc1ccc(C)c(N(C)C(=O)CCc2nc(C3=CCN(C)CC3)no2)c1
% Inhibition: -16%
Z score: 1.99

CCn1c(=O)cc(Cl)n(CC(=O)N2CCC3(CC2)OCCO3)c1=O
% Inhibition: -5%
Z score: 1

CC(C)(C)CC(C)(C)c1ccc(OC(=O)NC(C)(C(F)(F)F)C(F)(F)F)cc1
% Inhibition: -12%
Z score: 1.24

ON1C2CCCCC2N(O)C1c1ccco1 (stereo not drawn)
% Inhibition: 13%
Z score: -1.74

CCCNC(=O)OC[C@H]1C[C@@H]2CCN1C[C@@H]2c1cc(-c2ccc(N(C)C)cc2)nc(C)n1
% Inhibition: -13%
Z score: 1.66

O=C(Cc1cccc2ccccc12)Nc1ccc(-c2noc(=O)[nH]2)cc1
% Inhibition: -3%
Z score: 0.33

COc1ccc(C(C)NC(C)Cn2cncn2)c(OC)c1 (stereo not drawn)
% Inhibition: -4%
Z score: 0.48

Cc1oc(-c2ccccc2)nc1CN1C(=O)CN=C(c2ccc(F)cc2)c2c1sc(C)c2C
% Inhibition: -7%
Z score: 0.98

CCc1cc(C(=O)N2C[C@H](c3ccccc3)[C@@H]3[C@H]2C2CCN3CC2)ccn1
% Inhibition: -2%
Z score: 0.45

CO[C@]12ONC(c3ccccc3O)C1N1CCC2CC1 (stereo partly drawn)
% Inhibition: -16%
Z score: 2.03

Cc1c(C)[n+]([O-])c([C@@H](c2ccc(F)c(F)c2)C2C(=O)NC(=O)NC2=O)n1CCO
% Inhibition: -10%
Z score: 1.3

O=C(c1ccn2c(-c3ccccc3)nnc2c1)N1CCC2(CC1)OCCO2
% Inhibition: -6%
Z score: 0.65

O=C1CCCN1CC(=O)N(CCC1=CCCCC1)Cc1ccc(Cl)cc1
% Inhibition: -21%
Z score: 2.72

Nc1nnc(CCN2CCOCC2)s1
% Inhibition: 0%
Z score: 0.04

COC(=O)C1(c2ccccc2)CCN(C(=O)[C@@H]2COCCO2)CC1
% Inhibition: -10%
Z score: 1.78

CCc1ccc(CCN(C)Cc2conc2CC)cc1
% Inhibition: -9%
Z score: 1.75

Cc1ccc2c(c1)CCN[C@H]2C(C)(C)C
% Inhibition: -7%
Z score: 0.87

CC1CC(NCC2CCCCC2OCC(F)(F)F)CC(C)O1 (stereo not drawn)
% Inhibition: -3%
Z score: 0.37

CCn1nc(C)cc1C(=O)N1C[C@H](c2ccccc2)[C@@H]2[C@H]1C1CCN2CC1
% Inhibition: 2%
Z score: -0.31

FC(F)(F)c1ccc(-c2cccc3c2CCNC3)nc1
% Inhibition: -5%
Z score: 0.79

CC(C)c1noc(N2CCC3CCC(C2)N3C)n1 (stereo not drawn)
% Inhibition: -14%
Z score: 1.95

CCOCCC(=O)N1C[C@@H]2CC[C@H]1CN(Cc1ccccn1)C2
% Inhibition: -3%
Z score: 0.6

CC1CCN(CN2C(=O)N[C@]3(CN4CCC3CC4)C2=O)CC1
% Inhibition: -8%
Z score: 1.08

CN(CC#CCN(C)C1CCOC1)C1CCOC1 (stereo not drawn)
% Inhibition: 4%
Z score: -0.52

CC12CN(CC#N)CC(C)(CN(CC#N)C1)C2=O
% Inhibition: -3%
Z score: 0.34

CN1CCN(CCO[C@@H](c2cccc(Cl)c2)c2ccccc2Cl)CC1
% Inhibition: 35%
Z score: -4.48

COCCS(=O)(=O)Nc1ccc(C#N)c(Cl)c1
% Inhibition: -12%
Z score: 1.57

CC(C)=CCN1C[C@@H]2CC[C@H]1CN(C(=O)Cc1sc(C)nc1C)C2
% Inhibition: 2%
Z score: -0.34

CN1C[C@@H]2CC[C@H](CC1=O)N2Cc1cnc(-c2ccco2)nc1
% Inhibition: -12%
Z score: 1.18

Reference: ChEMBL document CHEMBL4888484, “Replenishing the malaria drug discovery pipeline: Screening and hit evaluation of the MMV Hit Generation Library 1 (HGL1) against asexual blood stage Plasmodium falciparum ,using a nano luciferase reporter read-out” (2022)
